Experimental data taken from US11918574B2, “Method of treating cancer associated with a RAS mutation” (BeyondSpring Pharmaceuticals, Inc., priority 2015, dated 2024).

Columns and labels:
[1] = system: HCT-15 (KRAS mutation G13D; P53 mutation S241F) human colon tumor xenograft; experiment: HCT-15 human colon tumor xenograft model
[2] = system: HEC1a; experiment: Single agent CellTiter-Glo cell viability assay, HEC1a; assay type: cell-based; settings: HEC-1-A, KRAS(p.G12D), Human Endometrial, 72 hours
Description: (§1) All cell lines were grown in their respective proper growth media supplemented with 2-10% FBS and were housed in an atmosphere of 5% CO2 at 37° C.
(§2) Cells were plated in growth media in 96-well microtiter plates at a 100 uL volume. Cells were then incubated for 24 hours at 37° C. in a humidified incubator. The test agent (Plinabulin)'s doses were achieved using HP D300 Digital Dispenser. Briefly, the digital dispenser added test agent (Plinabulin) in a DMSO solvent at precise volumes to media containing wells. Control wells received equivolumes of DMSO that test agent (Plinabulin) wells received. Following addition of the test agents, cells were exposed at the concentrations and dilutions described in Table 1 for 72 hours at 37° C. in a humidified incubator. Following 72 hour exposure, Plinabulin and control media were removed and 200 μl of a 1:1 mixture of media and CellTiter-Glo® Reagent was added to each well. The plates were incubated for 60 minutes at 37° C. in a humidified incubator. After incubation, luminescence was recorded using a luminometer.
(§3) Data were expressed as the percent cell growth of the untreated (vehicle) control calculated from the luminescence signals. The surviving fraction of cells was determined by dividing the mean luminescence values of the samples treated with Plinabulin by the mean luminescence values of untreated control. […]

[3] = system: PDGF-induced gliomas that expressed G12D mutant KRAS; experiment: PDGF-induced glioma GEMM expressing G12D mutant KRAS, survival; assay type: in vivo, mice
Text: The mouse model of glioma used was a PDGF-driven GEMM of glioma that mimics the proneural molecular subgroup of glioblastoma (GBM). This model was based on somatic cell-specific gene transfer; the replication-competent ALV-splice acceptor (RCAS) retroviral system allowed the instillation of particular genetic alterations within tightly regulated windows of differentiation in a cell type-specific manner. The RCAS/tv-a system employed the RCAS retroviral vector to infect mice genetically engineered to express the RCAS receptor (Iv-a) in specific cell populations. Here, gliomas were generated by RCAS-mediated transfer of PDGF to nestin-expressing cells in the brain. […] PDGF-driven gliomas arose with complete penetrance when combined with Ink4a-arf−/− deletion by 4-5 weeks post-infection. […] The tumor cell structures that define human gliomas, such as Scherer structures, microvascular proliferation and pseudopalisading necrosis were recreated in this GEMM as shown in FIGS. 1a-1d. […]
Plinabulin was tested on Mice with PDGF-induced gliomas that expressed G12D mutant KRAS. […] The mice were entered into a study group and treated with either Plinabulin or Plinabulin diluent as described above while consecutively being monitored for lethargy, hunched posture, appetite loss, outward signs of tumor growth, agitation, weight-loss and overall failure to thrive. […]

[4] = system: HCT-15; experiment: Single agent CellTiter-Glo cell viability assay, HCT-15; assay type: cell-based; settings: KRAS(p.G13D), Human Colorectal, 72 hours
Description: as §1, §2, §3

[5] = system: RXF-393; experiment: Single agent CellTiter-Glo cell viability assay, RXF-393; assay type: cell-based; settings: KRAS(p.D153V), Human Renal, 72 hours
Description: as §1, §2, §3

[6] = system: MIA PaCa- 2; experiment: Single agent CellTiter-Glo cell viability assay, MIA PaCa-2; assay type: cell-based; settings: KRAS(p.G12C), Human Pancreatic, 72 hours
Description: as §1, §2, §3

[7] = system: MOLP-8; experiment: Single agent CellTiter-Glo cell viability assay, MOLP-8; assay type: cell-based; settings: NRAS (p.Q61L), Human Multiple Myeloma, 72 hours
Description: as §1, §2, §3

[8] = system: AsPC-1; experiment: Single agent CellTiter-Glo cell viability assay, AsPC-1; assay type: cell-based; settings: ASPC1, KRAS(p.G12D), Human Pancreatic, 72 hours
Description: as §1, §2, §3

[9] = system: A549 (KRAS G12S) human lung tumor xenograft; experiment: A549 human lung tumor xenograft model; settings: for toxic deaths: A549 xenograft study
[10] = system: L363; experiment: Single agent CellTiter-Glo cell viability assay, L363; assay type: cell-based; settings: L-363, NRAS (p.Q61H), Human Multiple Myeloma, 72 hours
Description: as §1, §2, §3

[11] = system: LoVo; experiment: Single agent CellTiter-Glo cell viability assay, LoVo; assay type: cell-based; settings: KRAS(p.G13D), Human Colorectal, 72 hours
Description: as §1, §2, §3

[12] = system: MM.1S; experiment: Single agent CellTiter-Glo cell viability assay, MM.1S; assay type: cell-based; settings: MM1.S, KRAS (p.G12A), Human Multiple Myeloma, 72 hours
Description: as §1, §2, §3

[13] = system: KMS-27; experiment: Single agent CellTiter-Glo cell viability assay, KMS-27; assay type: cell-based; settings: NRAS (p.Q61R), Human Multiple Myeloma, 72 hours
Description: as §1, §2, §3

[14] = system: LoVo (KRAS mutation p.G13D) human colon tumor xenograft; settings: for tumor growth inhibition (TGI): Day 15, compared to the vehicle control; for mean body weight loss throughout the study: LoVo xenograft study; for mice that survived to terminal sacrifice: of ten mice
Text: LoVo Human Colon Tumor Xenograft Model: Female Athymic nude mice (Hsd:Athymic Nude-Foxn1nu) were supplied by Harlan (Indianapolis, IN). Mice were received at 4 weeks of age. All mice were acclimated prior to handling. The LoVo human colon tumor cell line was received from ATCC (Manassas, VA). Cultures were maintained in F12-K (Corning/Cellgro, Manassas, VA) supplemented with 10% fetal bovine serum (FBS; Seradigm; Radnor, PA), and housed in a 5% CO2 atmosphere. The cultures were expanded in tissue culture flasks at a 1:3 split ratio until a sufficient amount of cells were harvested. The LoVo human colon tumor cell line had mutations at KRAS p.G13D.
Female mice were inoculated in the subcutaneous right flank with 0.1 ml of a 50% Media/50% Matrigel mixture containing a suspension of LoVo tumor cells (1×10^7 cells/mouse).
Plinabulin vehicle (40% soltol:60% propylene glycol) was diluted in sterile 5% dextrose solution in the same ratio as for plinabulin and was used as a negative control.
Seven days following inoculation, tumors were measured using a digital caliper. The calipers were used to measure width and length diameters of the tumor. The measured values were digitally recorded using animal study management software, Study Director V.2.1.1 (Study Log). Tumor volumes were calculated utilizing the formula: Tumor volume (mm3)=(a×b2/2) where ‘b’ is the smallest diameter and ‘a’ is the largest diameters. […] Tumor volumes and body weights were recorded when the mice were randomized and were taken twice weekly thereafter. Clinical observations were made daily.
At time of necropsy, the tumors were excised and wet weight measurements were recorded as well as a visual assessment of tumor necrosis.
Mean tumor growth inhibition (TGI) was calculated for Day 27. All statistical analyses in the xenograft study were performed with Prism GraphPad® v6.00 software. Differences in Day 27 tumor volumes were confirmed using the Analysis of Variance (ANOVA) test. A one-tailed Student's T-Test with Welch's correction was also used to verify any differences between each group and the vehicle control, and a two-tailed Student's T-Test was used to verify differences between combination groups and their respective single agents.

[15] = system: Capan-2; experiment: Single agent CellTiter-Glo cell viability assay, Capan-2; assay type: cell-based; settings: KRAS(p.G12V), Human Pancreatic, 72 hours
Description: as §1, §2, §3

[16] = system: SNG-M; experiment: Single agent CellTiter-Glo cell viability assay, SNG-M; assay type: cell-based; settings: KRAS(p.G12V), Human Endometrial, 72 hours
Description: as §1, §2, §3

[17] = system: HCT116; experiment: Single agent CellTiter-Glo cell viability assay, HCT116; assay type: cell-based; settings: HCT-116, KRAS(p.G13D), Human Colorectal, 72 hours
Description: as §1, §2, §3

[18] = at the dose levels and schedules evaluated

SMILES: CC(C)(C)c1[nH]cnc1/C=c1\[nH]c(=O)/c(=C/c2ccccc2)[nH]c1=O [Plinabulin, (3Z,6Z)-3-Benzylidene-6-{[5-(2-methyl-2-propanyl)-1H-imidazol-4-yl]methylene}-2,5-piperazinedione]
- body weight loss ([1]; HCT-15 xenograft study): mild body weight loss
- tolerability ([1]; HCT-15 xenograft study): well-tolerated
- toxicity as a single agent [1, 18]: no toxicity
- IC50 [2]: 0.0577 µM
- body weight and symptoms of treated mice ([3]; Plinabulin 7.5 mg/kg i.p. two times per week): began to gain weight and show improved symptoms within a few days
- survival rate ([3]; Plinabulin 7.5 mg/kg i.p. two times per week for 10 wks vs Plinabulin diluent control, p=0.001, FIG. 4): significantly better survival rate
- IC50 [4]: 0.0131 µM
- IC50 [5]: 0.00437 µM
- IC50 [6]: 0.0923 µM
- IC50 [7]: 0.00422 µM
- IC50 [8]: 0.0169 µM
- toxic deaths [9]: no toxic deaths
- mean weight gain ([9]; Day 11): 10.6%
- mean weight gain ([9]; Day 22): 21.8%
- toxicity as a single agent [9, 18]: no toxicity
- IC50 [10]: 0.00944 µM
- IC50 [11]: 0.00685 µM
- IC50 [12]: 0.019 µM
- IC50 [13]: 0.00784 µM
- tumor growth inhibition (TGI) [14]: 41.0%
- mean body weight loss throughout the study [14]: no mean body weight loss
- mice that survived to terminal sacrifice [14]: Three out of ten
- IC50 [15]: 0.0103 µM
- IC50 [16]: 0.0131 µM
- IC50 [17]: 0.0328 µM

SMILES: CCc1c2c(nc3ccc(OC(=O)N4CCC(N5CCCCC5)CC4)cc13)-c1cc3c(c(=O)n1C2)COC(=O)[C@]3(O)CC [irinotecan, reference compound]
- tumor growth inhibition (TGI) ([1]; Day 27, compared to the vehicle negative control group): 31.8%
- tolerability ([1]; HCT-15 xenograft study): well-tolerated
- toxic deaths ([1]; HCT-15 xenograft study): no toxic deaths
- toxic deaths [9]: no toxic deaths
- tumor growth inhibition (TGI) [14]: 47.2%
- maximum body weight loss ([14]; Day 20, the final day of the study): 7.4%
- mean body weight loss throughout the study [14]: moderate body weight loss
- mice that survived to terminal sacrifice [14]: Five out of ten

SMILES: CC(=O)O[C@@]12CO[C@@H]1C[C@H](O)[C@@]1(C)C(=O)[C@H](O)C3=C(C)[C@@H](OC(=O)[C@H](O)[C@@H](NC(=O)OC(C)(C)C)c4ccccc4)C[C@@](O)([C@@H](OC(=O)c4ccccc4)[C@H]21)C3(C)C [Docetaxel, reference compound]
- toxic deaths [9]: no toxic deaths
- tumor growth inhibition (TGI) ([9]; compared to the vehicle control group, Day 56, Plinabulin 7.5 mg/kg Days 1-5, Docetaxel 12.5 mg/kg i.v. Days 1, 3, 5): 26.1%
